Test results published in a collection of fitness landscapes (doi:10.1016/j.celrep.2020.107928).
The full ranking holds about 81,000 sequences; the median of “one-hybrid fitness for binding NBS DNA” is about -0.1, and the highest 2% start at about 0.36. Some of the results follow.

B1: Caulobacter ParB omega fusion; a variant is named by its letters at X, in order, B8GW30 (parent)
chain: MESVVVGEPGMSEGRRGLGRGLSALLGEVDAAPAQAPGEQLGGSREAPIEILQRNPDQPRRTFREEDLEDLSNSIREKGVLQPILVRPSPDTAGEYQIVAGERAWRAAQRAGLKTVPIMVRELDDLAVLEIGIIENVQRADLNVLEEALSYKVLMEKFERTQENIAQTIGKSXSHVANXMRLLXLPDEVQSYLVSGELTAXHARAIAAAADPVALAKQIIEGGLSVRETEALARKAPNLSAGKSKGGRPPRVKDTDTQALESDLSSVLGLDVSIDHRGSTGTLTITYATLEQLDDLCNRLTRGI

Variants of: B1
Assay: one-hybrid fitness for binding NBS DNA (the Noc-binding site; scaled: cognate 1, non-cognate 0); higher = stronger binding
Details: with NBS DNA site
Procedure, shortened: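 Fitness is the rescaled log change in variant-to-wild-type read ratio, measured by Illumina sequencing of plasmids before and after bacterial one-hybrid selection. The scale puts cognate at 1 and non-cognate at 0. Selection of Caulobacter ParB libraries, four specificity codons randomised, took place in E. coli USO with a HIS3 reporter, site 19 bp from the promoter, over 48 hours at 37°C on M9-minus-histidine with 0.1 mM IPTG and 5 mM 3-AT.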

Variant | one-hybrid fitness for binding NBS DNA
TDNL | ≤ 0.2
GRFG | ≤ 0.2
EPQC | ≤ 0.2
YFVG | ≤ 0.2
HWTA | ≤ 0.2
QITM | ≤ 0.2
QELM | ≤ 0.2
SSEF | ≤ 0.2
YTGA | ≤ 0.2
PPHC | ≤ 0.2
NCVC | ≤ 0.2
RPYV | ≤ 0.2
WPNL | ≤ 0.2
RNFL | ≤ 0.2
RYWV | ≤ 0.2
IIKG | ≤ 0.2
EPAS | ≤ 0.2
CMDY | ≤ 0.2
ASSK | ≤ 0.2
SGTT | ≤ 0.2
PNVI | ≤ 0.2
YHAS | ≤ 0.2
QEYV | ≤ 0.2
PLQC | ≤ 0.2
SDRN | ≤ 0.2

Variant | one-hybrid fitness for binding NBS DNA
RVKW | ≤ 0.2
NFMG | ≤ 0.2
LKAF | ≤ 0.2
VTTL | ≤ 0.2
AMNE | ≤ 0.2
SYFT | ≤ 0.2
GATD | ≤ 0.2
MGNL | ≤ 0.2
ISPT | ≤ 0.2
RDEL | ≤ 0.2
PRNC | ≤ 0.2
RQRW | ≤ 0.2
YYPG | ≤ 0.2
QYTQ | ≤ 0.2
RPNG | ≤ 0.2
VPRA | ≤ 0.2
CPFF | ≤ 0.2
FNVC | ≤ 0.2
QAGY | ≤ 0.2
FAFM | ≤ 0.2
SYRT | ≤ 0.2
HCGR | ≤ 0.2
RVNF | ≤ 0.2
PLMY | ≤ 0.2
PRGR | ≤ 0.2

Variant | one-hybrid fitness for binding NBS DNA
HKRR | ≤ 0.2
DSDV | ≤ 0.2
THST | ≤ 0.2
LTIA | ≤ 0.2
LKYL | ≤ 0.2
ACKM | ≤ 0.2
CTIW | ≤ 0.2
LADR | ≤ 0.2
WARG | ≤ 0.2
DNHS | ≤ 0.2
HAAA | ≤ 0.2
CGLF | ≤ 0.2
NTCS | ≤ 0.2
LWHG | ≤ 0.2
MRTP | ≤ 0.2
FSKC | ≤ 0.2
RQNR | 0.559
CYES | ≤ 0.2
HNCS | ≤ 0.2
ASRC | ≤ 0.2
FNIT | ≤ 0.2
TLKI | ≤ 0.2
QQTD | ≤ 0.2
RFYT | ≤ 0.2
PDGY | ≤ 0.2

Variant | one-hybrid fitness for binding NBS DNA
NVRS | ≤ 0.2
QINC | ≤ 0.2
YFMR | ≤ 0.2
QHKQ | 0.404
KWGS | ≤ 0.2
TRRQ | ≤ 0.2
VHAC | ≤ 0.2
LRHI | ≤ 0.2
PLIL | ≤ 0.2
ELPI | ≤ 0.2
CLMI | ≤ 0.2
QNEV | ≤ 0.2
PLND | ≤ 0.2
MVNK | ≤ 0.2
QSYK | ≤ 0.2
NGYS | ≤ 0.2
TPSA | ≤ 0.2
HKVM | ≤ 0.2
YPRT | ≤ 0.2
QCHG | ≤ 0.2
AKMS | ≤ 0.2
GSPF | ≤ 0.2
VLLS | ≤ 0.2
NRKA | ≤ 0.2
PDIR | ≤ 0.2

Variant | one-hybrid fitness for binding NBS DNA
STKN | ≤ 0.2
QNAL | ≤ 0.2
IDYA | ≤ 0.2
HRPP | ≤ 0.2
QYMC | ≤ 0.2
TYCY | ≤ 0.2
AMTI | ≤ 0.2
FPFL | ≤ 0.2
ITHR | ≤ 0.2
NWRD | ≤ 0.2
IYRG | ≤ 0.2
YSNL | ≤ 0.2
SHLR | ≤ 0.2
YILL | ≤ 0.2
RNWC | ≤ 0.2
PKGA | ≤ 0.2
CLVH | ≤ 0.2
CRYS | ≤ 0.2
HQFL | ≤ 0.2
ISMK | ≤ 0.2
PADG | ≤ 0.2
TLHR | ≤ 0.2
AWLS | ≤ 0.2
KTGT | ≤ 0.2
QYGS | 0.377

Variant | one-hybrid fitness for binding NBS DNA
DDIR | ≤ 0.2
LFYI | ≤ 0.2
PNDE | ≤ 0.2
QAPM | ≤ 0.2
KTKL | ≤ 0.2
QTDL | ≤ 0.2
TWRK | ≤ 0.2
RDWI | ≤ 0.2
SNLQ | ≤ 0.2
PGIG | ≤ 0.2
EHGR | ≤ 0.2
DIDF | ≤ 0.2
RYCL | ≤ 0.2
QQPW | ≤ 0.2
HAKK | ≤ 0.2
LRYS | ≤ 0.2
SPNW | ≤ 0.2
TQSS | ≤ 0.2
NYYG | ≤ 0.2
GYLG | ≤ 0.2
DSLA | ≤ 0.2
AFPY | ≤ 0.2
RPQM | ≤ 0.2
IVTP | ≤ 0.2
RLLN | ≤ 0.2

Variant | one-hybrid fitness for binding NBS DNA
VNVR | ≤ 0.2
LAHT | ≤ 0.2
ECQL | ≤ 0.2
IRYE | ≤ 0.2
LWDS | ≤ 0.2
CGCR | ≤ 0.2
NPVR | ≤ 0.2
RHAM | ≤ 0.2
NMCG | ≤ 0.2
SACF | ≤ 0.2
QIKR | 0.853
TCGG | ≤ 0.2
QFPP | ≤ 0.2
IVFV | ≤ 0.2
SDDG | ≤ 0.2
VMNT | ≤ 0.2
AERM | ≤ 0.2
VYNS | ≤ 0.2
ETDS | ≤ 0.2
LSME | ≤ 0.2
AIKR | 0.209
HHVT | ≤ 0.2
NCIG | ≤ 0.2
WSMS | ≤ 0.2
SVRW | ≤ 0.2

Variant | one-hybrid fitness for binding NBS DNA
LPNR | ≤ 0.2
PMRN | ≤ 0.2
RFYC | ≤ 0.2
YFTG | ≤ 0.2
IYAV | ≤ 0.2
AMDV | ≤ 0.2
VHTA | ≤ 0.2
QDMY | ≤ 0.2
PNVW | ≤ 0.2
HGPV | ≤ 0.2
VTFI | ≤ 0.2
KPWS | ≤ 0.2
RHYL | ≤ 0.2
LSHW | ≤ 0.2
PSQN | ≤ 0.2
CGIR | ≤ 0.2
CGQR | ≤ 0.2
SFLC | ≤ 0.2
EGHS | ≤ 0.2
LSVQ | ≤ 0.2
